In publication PMC12820563:
The list shows a part of the results. The list includes weakly bound sequences.

What follows are sequences tested against T1, MBP-FoxP3dN (UniProt Q99JB6) (assay: PD-seq (MBP pull-down with sequencing)). Conditions: 20 mM Tris-HCl pH 7.5, 100 mM NaCl, 1.5 mM MgCl2, 0.4 uM protein, 0.1 uM dsDNA library, 30 min, room temperature, amylose pull-down; high values mean tight binding; double strand, one strand shown.
T1 sequence: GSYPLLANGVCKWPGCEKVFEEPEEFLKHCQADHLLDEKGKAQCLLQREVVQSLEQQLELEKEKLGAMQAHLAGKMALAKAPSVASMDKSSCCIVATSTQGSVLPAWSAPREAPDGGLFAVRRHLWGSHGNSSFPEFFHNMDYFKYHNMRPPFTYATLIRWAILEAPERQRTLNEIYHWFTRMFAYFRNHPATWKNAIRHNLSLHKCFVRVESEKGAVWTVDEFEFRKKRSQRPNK

| Sequence | binding signal (RPM ratio (pull-down/input)) |
| --- | --- |
| GATGATTGTTCTCCCAGCTGATGAATTACCTGACTCGAGTAAACAAATTTTCCTAATCTTTCTGTTCAAGCGCCATCTAC | 0.229 |
| GATGATTGTTCTCCCAGCTGATGAATTTAAAAGCTCGAGTAAACAAATTTTCCTAATCTTTCTGTTCAAGCGCCATCTAC | 0.237 |
| GATGATTGTTCTCCCAGCTGATGAATTGCTCCGATCGAGTAAACAAATTTTCCTAATCTTTCTGTTCAAGCGCCATCTAC | 0.349 |
| GATGATTGTTCTCCCAGCTGATGAATTGTTGTAGTCGAGTAAACAAATTTTCCTAATCTTTCTGTTCAAGCGCCATCTAC | 2.5 |
| GATGATTGTTCTCCCAGCTGATGAATTGAACGAGTCGAGTAAACAAATTTTCCTAATCTTTCTGTTCAAGCGCCATCTAC | 0.257 |
| GATGATTGTTCTCCCAGCTGATGAATTATACCCCTCGAGTAAACAAATTTTCCTAATCTTTCTGTTCAAGCGCCATCTAC | 0.373 |
| GATGATTGTTCTCCCAGCTGATGAATTTGAGCTCTCGAGTAAACAAATTTTCCTAATCTTTCTGTTCAAGCGCCATCTAC | 0.363 |
| GATGATTGTTCTCCCAGCTGATGAATTACGTGTGTCGAGTAAACAAATTTTCCTAATCTTTCTGTTCAAGCGCCATCTAC | 1.4 |
| GATGATTGTTCTCCCAGCTGATGAATTCATCTCGTCGAGTAAACAAATTTTCCTAATCTTTCTGTTCAAGCGCCATCTAC | 0.361 |
| GATGATTGTTCTCCCAGCTGATGAATTTTCCGAGTCGAGTAAACAAATTTTCCTAATCTTTCTGTTCAAGCGCCATCTAC | 0.207 |
| GATGATTGTTCTCCCAGCTGATGAATTGTTTCACTCGAGTAAACAAATTTTCCTAATCTTTCTGTTCAAGCGCCATCTAC | 0.782 |
| GATGATTGTTCTCCCAGCTGATGAATTTCCCGCCTCGAGTAAACAAATTTTCCTAATCTTTCTGTTCAAGCGCCATCTAC | 0.44 |
| GATGATTGTTCTCCCAGCTGATGAATTCTTGCCCTCGAGTAAACAAATTTTCCTAATCTTTCTGTTCAAGCGCCATCTAC | 0.351 |
| GATGATTGTTCTCCCAGCTGATGAATTCCGTCTTTCGAGTAAACAAATTTTCCTAATCTTTCTGTTCAAGCGCCATCTAC | 0.717 |
| GATGATTGTTCTCCCAGCTGATGAATTGTCCTTTTCGAGTAAACAAATTTTCCTAATCTTTCTGTTCAAGCGCCATCTAC | 0.39 |
| GATGATTGTTCTCCCAGCTGATGAATTTATTACGTCGAGTAAACAAATTTTCCTAATCTTTCTGTTCAAGCGCCATCTAC | 1.22 |
| GATGATTGTTCTCCCAGCTGATGAATTAGCTTCATCGAGTAAACAAATTTTCCTAATCTTTCTGTTCAAGCGCCATCTAC | 0.544 |
| GATGATTGTTCTCCCAGCTGATGAATTTGCATTTTCGAGTAAACAAATTTTCCTAATCTTTCTGTTCAAGCGCCATCTAC | 5.38 |
| GATGATTGTTCTCCCAGCTGATGAATTGATCTCATCGAGTAAACAAATTTTCCTAATCTTTCTGTTCAAGCGCCATCTAC | 0.374 |
| GATGATTGTTCTCCCAGCTGATGAATTCCATTTCTCGAGTAAACAAATTTTCCTAATCTTTCTGTTCAAGCGCCATCTAC | 0.561 |
| GATGATTGTTCTCCCAGCTGATGAATTGGGTGATTCGAGTAAACAAATTTTCCTAATCTTTCTGTTCAAGCGCCATCTAC | 0.949 |

| Sequence | binding signal (RPM ratio (pull-down/input)) |
| --- | --- |
| GATGATTGTTCTCCCAGCTGATGAATTTATTCTGTCGAGTAAACAAATTTTCCTAATCTTTCTGTTCAAGCGCCATCTAC | 0.533 |
| GATGATTGTTCTCCCAGCTGATGAATTACTCCGTTCGAGTAAACAAATTTTCCTAATCTTTCTGTTCAAGCGCCATCTAC | 0.302 |
| GATGATTGTTCTCCCAGCTGATGAATTACACAGTTCGAGTAAACAAATTTTCCTAATCTTTCTGTTCAAGCGCCATCTAC | 0.552 |
| GATGATTGTTCTCCCAGCTGATGAATTTTATGAGTCGAGTAAACAAATTTTCCTAATCTTTCTGTTCAAGCGCCATCTAC | 1.67 |
| GATGATTGTTCTCCCAGCTGATGAATTGCAAACGTCGAGTAAACAAATTTTCCTAATCTTTCTGTTCAAGCGCCATCTAC | 0.843 |
| GATGATTGTTCTCCCAGCTGATGAATTCTAACACTCGAGTAAACAAATTTTCCTAATCTTTCTGTTCAAGCGCCATCTAC | 0.577 |
| GATGATTGTTCTCCCAGCTGATGAATTTCCAGACTCGAGTAAACAAATTTTCCTAATCTTTCTGTTCAAGCGCCATCTAC | 0.194 |
| GATGATTGTTCTCCCAGCTGATGAATTACCCTGATCGAGTAAACAAATTTTCCTAATCTTTCTGTTCAAGCGCCATCTAC | 0.253 |
| GATGATTGTTCTCCCAGCTGATGAATTCTCTAACTCGAGTAAACAAATTTTCCTAATCTTTCTGTTCAAGCGCCATCTAC | 0.211 |
| GATGATTGTTCTCCCAGCTGATGAATTGCTTTCATCGAGTAAACAAATTTTCCTAATCTTTCTGTTCAAGCGCCATCTAC | 1.04 |
| GATGATTGTTCTCCCAGCTGATGAATTCCGAGGATCGAGTAAACAAATTTTCCTAATCTTTCTGTTCAAGCGCCATCTAC | 0.216 |
| GATGATTGTTCTCCCAGCTGATGAATTCGAATCTTCGAGTAAACAAATTTTCCTAATCTTTCTGTTCAAGCGCCATCTAC | 0.511 |
| GATGATTGTTCTCCCAGCTGATGAATTGGAGAGGTCGAGTAAACAAATTTTCCTAATCTTTCTGTTCAAGCGCCATCTAC | 0.195 |
| GATGATTGTTCTCCCAGCTGATGAATTAAGCGATTCGAGTAAACAAATTTTCCTAATCTTTCTGTTCAAGCGCCATCTAC | 1.09 |
| GATGATTGTTCTCCCAGCTGATGAATTGGCTTGTTCGAGTAAACAAATTTTCCTAATCTTTCTGTTCAAGCGCCATCTAC | 2.49 |
| GATGATTGTTCTCCCAGCTGATGAATTTAAAACCTCGAGTAAACAAATTTTCCTAATCTTTCTGTTCAAGCGCCATCTAC | 0.227 |
| GATGATTGTTCTCCCAGCTGATGAATTCGACAACTCGAGTAAACAAATTTTCCTAATCTTTCTGTTCAAGCGCCATCTAC | 0.474 |
| GATGATTGTTCTCCCAGCTGATGAATTAGAATAGTCGAGTAAACAAATTTTCCTAATCTTTCTGTTCAAGCGCCATCTAC | 0.342 |
| GATGATTGTTCTCCCAGCTGATGAATTGTATACCTCGAGTAAACAAATTTTCCTAATCTTTCTGTTCAAGCGCCATCTAC | 3.63 |
| GATGATTGTTCTCCCAGCTGATGAATTTCAGCTCTCGAGTAAACAAATTTTCCTAATCTTTCTGTTCAAGCGCCATCTAC | 0.337 |
| GATGATTGTTCTCCCAGCTGATGAATTTAAAGAATCGAGTAAACAAATTTTCCTAATCTTTCTGTTCAAGCGCCATCTAC | 0.177 |

| Sequence | binding signal (RPM ratio (pull-down/input)) |
| --- | --- |
| GATGATTGTTCTCCCAGCTGATGAATTAAACCAGTCGAGTAAACAAATTTTCCTAATCTTTCTGTTCAAGCGCCATCTAC | 0.361 |
| GATGATTGTTCTCCCAGCTGATGAATTGGCTGCGTCGAGTAAACAAATTTTCCTAATCTTTCTGTTCAAGCGCCATCTAC | 0.563 |
| GATGATTGTTCTCCCAGCTGATGAATTAGACTTTTCGAGTAAACAAATTTTCCTAATCTTTCTGTTCAAGCGCCATCTAC | 0.478 |
| GATGATTGTTCTCCCAGCTGATGAATTGTTATATTCGAGTAAACAAATTTTCCTAATCTTTCTGTTCAAGCGCCATCTAC | 1.27 |
| GATGATTGTTCTCCCAGCTGATGAATTAGCGATATCGAGTAAACAAATTTTCCTAATCTTTCTGTTCAAGCGCCATCTAC | 0.612 |
| GATGATTGTTCTCCCAGCTGATGAATTTGGGAGTTCGAGTAAACAAATTTTCCTAATCTTTCTGTTCAAGCGCCATCTAC | 0.45 |
| GATGATTGTTCTCCCAGCTGATGAATTGTTAACATCGAGTAAACAAATTTTCCTAATCTTTCTGTTCAAGCGCCATCTAC | 1.08 |
| GATGATTGTTCTCCCAGCTGATGAATTGCACGCATCGAGTAAACAAATTTTCCTAATCTTTCTGTTCAAGCGCCATCTAC | 1.94 |
| GATGATTGTTCTCCCAGCTGATGAATTAACGGACTCGAGTAAACAAATTTTCCTAATCTTTCTGTTCAAGCGCCATCTAC | 0.244 |
| GATGATTGTTCTCCCAGCTGATGAATTGTGAAAATCGAGTAAACAAATTTTCCTAATCTTTCTGTTCAAGCGCCATCTAC | 0.302 |
| GATGATTGTTCTCCCAGCTGATGAATTCAGTCTATCGAGTAAACAAATTTTCCTAATCTTTCTGTTCAAGCGCCATCTAC | 0.735 |
| GATGATTGTTCTCCCAGCTGATGAATTCGGCGCCTCGAGTAAACAAATTTTCCTAATCTTTCTGTTCAAGCGCCATCTAC | 1.25 |
| GATGATTGTTCTCCCAGCTGATGAATTAAGAGACTCGAGTAAACAAATTTTCCTAATCTTTCTGTTCAAGCGCCATCTAC | 0.461 |
| GATGATTGTTCTCCCAGCTGATGAATTCGTAGCTTCGAGTAAACAAATTTTCCTAATCTTTCTGTTCAAGCGCCATCTAC | 0.732 |
| GATGATTGTTCTCCCAGCTGATGAATTGTACGGCTCGAGTAAACAAATTTTCCTAATCTTTCTGTTCAAGCGCCATCTAC | 0.298 |
| GATGATTGTTCTCCCAGCTGATGAATTGCGCTTATCGAGTAAACAAATTTTCCTAATCTTTCTGTTCAAGCGCCATCTAC | 2.48 |
| GATGATTGTTCTCCCAGCTGATGAATTTTGACCTTCGAGTAAACAAATTTTCCTAATCTTTCTGTTCAAGCGCCATCTAC | 0.402 |
| GATGATTGTTCTCCCAGCTGATGAATTACGTGTATCGAGTAAACAAATTTTCCTAATCTTTCTGTTCAAGCGCCATCTAC | 1.74 |
| GATGATTGTTCTCCCAGCTGATGAATTCTGTATTTCGAGTAAACAAATTTTCCTAATCTTTCTGTTCAAGCGCCATCTAC | 4.09 |
| GATGATTGTTCTCCCAGCTGATGAATTTCTACAGTCGAGTAAACAAATTTTCCTAATCTTTCTGTTCAAGCGCCATCTAC | 0.213 |
| GATGATTGTTCTCCCAGCTGATGAATTGGGGACCTCGAGTAAACAAATTTTCCTAATCTTTCTGTTCAAGCGCCATCTAC | 0.306 |
